{
  "source": "PubChem BioAssay (Tox21)",
  "note": "Values joined by “and” are separate entries in the source; they are usually repeats but may differ in a detail not shown here. Equal values may be shown once. The inconclusive results got no clear call from the source; some entries with a clear call stand among them for comparison. Where the call is inconclusive, the potency comes from a doubtful curve fit. Active and inactive are the calls of the source. The call rests on the fitted dose curve; in most records, active means well fitted activation curve with a large enough effect in the repeat runs; inconclusive means weak or mixed curves, or effect the other way; inactive means no such curve, though single readings can be large or run the other way. On the % scale 0 is the no-effect control and ±100 the full control effect; potency means the concentration at half of the fitted maximal effect; tags describe the fitted curve by direction and shape.",
  "data": [
    {"assay": "qHTS assay to identify small molecule agonists of the retinoic acid receptor (RAR) signaling pathway (AID 1159553)", "conditions": "C3RL4 RARE luciferase reporter, agonist, 6 h; activation: at 73.3 µM (top of the series) unless noted", "description": "National Center for Advancing Translational Sciences [NCATS] NIH Chemical Genomics Center [NCGC] U.S. Environmental Protection Agency [EPA] National Institutes of Environmental Health Sciences [NIEHS] National Toxicology Program [NTP] Assay overview: All-trans Retinoic acid (atRA) is the potent natural metabolite of retinol and plays an important role in normal embryonic development and maintenance of cellular phenotype in adult animals. atRA is the activating ligand for the retinoic acid receptors (RARs) which form heterodimers with retinoid X receptors (RXRs) on the retinoic acid response element (RARE). Through activation of the RAR/RXRs nuclear receptors, atRA regulates the transcription of a large number of protein-coding genes and regulatory RNAs. Intracellular levels of atRA are controlled by the retinol signaling pathway (RSP) that regulates the biosynthesis and catabolism of atRA to maintain physiological levels. Chemicals that interfere with the RSP can cause abnormal intracellular levels of atRA and therefore are potential developmental toxicants. To assess compounds for the potential adverse effect on embryonic development through interfering with retinol signaling, a cell-based RARE luciferase reporter gene assay was used. C3RL4 cell line (OARSA/CFSAN/FDA, Laurel, MD) was used to screen Tox21 10K compound library for identifying activators of the RSP.\nAssay Protocol Summary: C3RL4 cells were seeded at 1,000/well in 5 uL of assay medium into white solid 1,536-well tissue culture plates (Greiner Bio-One North America Inc. Monroe, NC) using a Multidrop Combi (Thermo Scientific, Waltham, MA) dispenser. After incubation at 37 C and 5% CO2 for an overnight, 23 nL of compounds dissolved in DMSO, positive control or DMSO only were transferred by a Pintool station (Kalypsys, San Diego, CA). After 6 hr incubation at 37 C and 5% CO2, 5 uL of Amplite Luciferase reagent (AAT Bioquest Inc. Sunnyvale, CA) was added to each assay plate using a Flying Reagent Dispenser (FRD) (Aurora Discovery, San Diego, CA). Luminescence was quantified on a ViewLux plate reader (PerkinElmer, Waltham, MA) after 30 min incubation at room temperature.", "values": [
      {"smiles": "CCCCOC(=O)CCC(C)=O", "Potency": "inconclusive: 38.6 µM [inhibitor, partial curve]"},
      {"smiles": "c1ccc(CSCc2ccccc2)cc1", "Potency": "inconclusive: 60.9 µM [activator, partial curve, poor fit]"},
      {"smiles": "C=C(C)C(=O)OC(C)C", "Potency": "inconclusive: 77.1 µM [inhibitor, single point]"},
      {"smiles": "C=C1C(=C/C=C2\\CCC[C@]3(C)[C@@H]([C@H](C)/C=C/[C@@H](O)C4CC4)CC[C@@H]23)C[C@@H](O)C[C@@H]1O", "Potency": "inconclusive: 10.6 µM [activator, partial curve, poor fit]"},
      {"smiles": "Oc1ccccc1", "Potency": "inconclusive: 68.6 µM [inhibitor, single point]"},
      {"smiles": "O=C(O)C1(C(=O)Nc2ccc(Cl)cc2Cl)CC1", "Potency": "active: 6.11 µM"},
      {"smiles": "Cc1ccc(C)c(O)c1C", "Potency": "inactive"},
      {"smiles": "Cc1nc(-c2ccc(OCC(C)C)c(C#N)c2)sc1C(=O)O", "Potency": "active: 0.0944 µM"},
      {"smiles": "COc1ccc(Nc2ccc(OC)cc2)cc1", "Potency": "active: 4.94 µM"},
      {"smiles": "Oc1c(Cl)cc(Cl)cc1Sc1cc(Cl)cc(Cl)c1O", "activation": "inconclusive: -9.41% [phenotype inactive] [at 94.8 µM]"},
      {"smiles": "O=c1cc(-c2ccc(O)cc2)oc2cc(O)cc(O)c12", "Potency": "active: 1.56 µM and inconclusive: 1.09 µM [activator, full curve]"},
      {"smiles": "Cc1c(-c2cccnc2)c2ccccc2n1CCCCC(=O)O", "Potency": "active: 43.3 µM"},
      {"smiles": "CC(=O)c1c(C)cc(C(C)(C)C)cc1C", "activation": "inactive: 0.243%"},
      {"smiles": "CC(C)(C)c1ccc(C(=O)CCCCl)cc1", "Potency": "active: 5.96 µM"},
      {"smiles": "Cc1c(C)c2c(c(C)c1OC(=O)CCC(=O)OCCO)CC[C@@](C)(CCC[C@H](C)CCC[C@H](C)CCCC(C)C)O2", "Potency": "inconclusive: 23.7 µM [inhibitor, partial curve]"},
      {"smiles": "CN(C)c1ccc(C(=C2C=CC(=[N+](C)C)C=C2)c2ccc(N(C)C)cc2)cc1", "Potency": "inconclusive: 30.5 µM [inhibitor, partial curve] and inconclusive: 969 nM [inhibitor, single point] and inconclusive: 2.98 µM [inhibitor, full curve]"},
      {"smiles": "COc1ccc(-c2coc3cc(O)ccc3c2=O)cc1", "Potency": "active: 0.486 µM"},
      {"smiles": "CCCCN(CCCC)C(=O)N(CCCC)CCCC", "activation": "inactive: -4.5%"},
      {"smiles": "Cc1cnc(NC(=O)C2=C(O)c3ccccc3S(=O)(=O)N2C)s1", "Potency": "inconclusive: 96.9 µM [activator, single point]"},
      {"smiles": "C[C@@H]1C[C@H]2O[C@@]3(O[C@@H]2C(C)(C)O)[C@H](O)[C@@]2(C)[C@@H]4CC[C@H]5C(C)(C)[C@@H](O[C@@H]6OC[C@@H](O)[C@H](O)[C@H]6O)CC[C@@]56C[C@@]46CC[C@]2(C)[C@@H]13", "Potency": "inconclusive: 47.9 µM [inhibitor, single point]"},
      {"smiles": "CCCCOCCOC(=O)CCCCCCCCC(=O)OCCOCCCC", "activation": "inconclusive: 0.469% [phenotype inactive]"},
      {"smiles": "CN1C(C(=O)Nc2ccccn2)=C(O)c2ccccc2S1(=O)=O", "Potency": "inconclusive: 69.2 µM [activator, partial curve, poor fit] and inactive"},
      {"smiles": "O=C(c1ccccc1)c1ccc(O)cc1O", "Potency": "inconclusive: 27.8 µM [activator, single point]"},
      {"smiles": "CC(NCCC(c1ccccc1)c1ccccc1)c1ccccc1", "note": "(stereo not given)", "Potency": "inconclusive: 33.5 µM [inhibitor, single point]"},
      {"smiles": "CCCCCCCCOc1ccc(C(=O)c2ccccc2)c(O)c1", "activation": "inconclusive: 4.9% [phenotype inactive]"},
      {"smiles": "Nc1cccc(N)c1", "Potency": "inconclusive: 48.5 µM [activator, partial curve, poor fit] and inactive"},
      {"smiles": "CCCCCCCCCCCCCCCC[N+](C)(C)CC", "Potency": "inconclusive: 34.5 µM [inhibitor, partial curve] and inconclusive: 26.6 µM [inhibitor, partial curve]"},
      {"smiles": "O=c1[nH]cnc2[nH]ncc12", "Potency": "inactive"},
      {"smiles": "O=C1c2ccccc2C(=O)N1CCl", "activation": "inconclusive: -5.83% [phenotype inactive]"},
      {"smiles": "O=C(O)c1cc2ccccc2cc1O", "Potency": "inconclusive: 21.5 µM [activator, partial curve, poor fit]"},
      {"smiles": "CCCCCCCCCCCCOCCOCCOCCOCCOCCOCCOCCOCCOCCO", "Potency": "inconclusive: 26.6 µM [inhibitor, partial curve, poor fit]"},
      {"smiles": "c1ccc(CNCCNCc2ccccc2)cc1", "activation": "inactive: 0.402%"},
      {"smiles": "CCCCCCC(CO)CCCC", "note": "(stereo not given)", "activation": "inactive: 5.18%"},
      {"smiles": "Cc1ccc(O)c([C@H](CCN(C(C)C)C(C)C)c2ccccc2)c1", "activation": "inactive: -6.42%"},
      {"smiles": "CCCOC(=O)c1cc(O)c(O)c(O)c1", "Potency": "inconclusive: 10.8 µM [activator, partial curve] and inconclusive: 12.2 µM [activator, partial curve, poor fit]"},
      {"smiles": "CCCCCCCOC(=O)CCC", "activation": "inactive: -0.539%"},
      {"smiles": "Nc1ccc(C(=O)Nc2ccccc2N)cc1", "Potency": "inconclusive: 13.3 µM [activator, partial curve, poor fit]"},
      {"smiles": "Clc1ccc2c(c1)CCc1cccnc1C2=C1CCNCC1", "Potency": "inconclusive: 13.3 µM [inhibitor, partial curve]"},
      {"smiles": "CCc1nn(C2CCCCC2)c2cc(C3(C#N)CCC(C(=O)O)CC3)ccc12", "note": "(stereo not given)", "activation": "inactive: -6.77%"},
      {"smiles": "CC(=O)Oc1ccccc1C(=O)Nc1ncc([N+](=O)[O-])s1", "Potency": "active: 140 nM and active: 188 nM"}
    ]}
  ]
}
